Results: PubChem BioAssay AID1645887 (National Center for Advancing Translational Sciences (NCATS), 2021)
“And” between values parts separate entries of the source, which are not always exact repeats. Equal entries are not always repeated. Screen size: about 16,000 compounds; about 40 (0.2%) were called active. Inconclusive results (about 1%) are left out. The call rests on the fitted dose curve; in most records, active means well fitted activation curve with a large enough effect; inconclusive means small, poorly fitted or top-dose-only effect, or another doubt; inactive means no such curve, though single readings can be large or run the other way. This is one part of the list.

Biological target: Rap guanine nucleotide exchange factor 4 (Homo sapiens) (UniProt Q8WZA2)
Assay: Validation qHTS for agonist of cAMP-regulated guanine nucleotide exchange factor 4 (EPAC2);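 further: exchange makes BODIPY-GDP fluorescence drop when released from Rap1B; series mostly up to about 150 µM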
Settings: EPAC2 Rap1B BODIPY-GDP exchange, fluorescence; activation: active compounds read high
Summary of the method: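 Signal normalized against 6.5 mM cAMP as agonist control. Mix of EPAC2 (100 nM), RAP1B-BODIPY-GDP (250 nM) and GDP (50 uM) was read kinetically at 480/540 nm, every 5 min over 30 min, after 5 min room-temperature incubation with compound.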
On the % scale 0 is the no-effect control and ±100 the full control effect.

Sequence of UniProt Q8WZA2 (Q8WZA2 whole entry, looked up): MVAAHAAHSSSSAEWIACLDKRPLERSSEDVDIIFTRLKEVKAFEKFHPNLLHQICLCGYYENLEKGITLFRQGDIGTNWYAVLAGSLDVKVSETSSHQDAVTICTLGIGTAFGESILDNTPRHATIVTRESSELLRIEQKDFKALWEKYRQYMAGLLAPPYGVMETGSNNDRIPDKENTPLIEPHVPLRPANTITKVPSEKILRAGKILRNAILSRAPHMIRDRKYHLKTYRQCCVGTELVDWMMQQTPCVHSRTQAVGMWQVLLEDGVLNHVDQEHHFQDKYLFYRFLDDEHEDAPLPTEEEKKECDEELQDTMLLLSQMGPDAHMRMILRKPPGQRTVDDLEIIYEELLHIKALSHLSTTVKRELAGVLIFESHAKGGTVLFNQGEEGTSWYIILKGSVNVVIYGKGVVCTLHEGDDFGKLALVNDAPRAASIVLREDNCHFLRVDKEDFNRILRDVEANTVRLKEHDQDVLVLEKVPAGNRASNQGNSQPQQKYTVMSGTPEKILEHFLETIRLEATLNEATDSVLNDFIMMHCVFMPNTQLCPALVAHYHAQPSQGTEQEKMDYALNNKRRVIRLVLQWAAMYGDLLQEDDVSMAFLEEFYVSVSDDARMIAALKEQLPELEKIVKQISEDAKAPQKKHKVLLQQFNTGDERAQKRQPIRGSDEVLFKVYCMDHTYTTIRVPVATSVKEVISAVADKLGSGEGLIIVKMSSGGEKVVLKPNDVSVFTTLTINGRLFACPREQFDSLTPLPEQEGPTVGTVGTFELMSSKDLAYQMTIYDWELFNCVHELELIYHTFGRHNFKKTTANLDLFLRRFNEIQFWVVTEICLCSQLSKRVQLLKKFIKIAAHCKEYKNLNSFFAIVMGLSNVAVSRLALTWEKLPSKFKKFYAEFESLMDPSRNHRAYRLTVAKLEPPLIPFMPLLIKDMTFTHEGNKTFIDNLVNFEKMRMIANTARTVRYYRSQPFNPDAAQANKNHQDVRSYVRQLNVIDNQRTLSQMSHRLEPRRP

activation, inactive:
CSc1nc2cc(Oc3cccc(Cl)c3Cl)c(Cl)cc2[nH]1 1.25%
COc1cccc(-c2ccc3ncnc(N4CCNCC4)c3c2)c1 -2.62%
CC(=O)CC/C=C(\C)CC/C=C(\C)CC/C=C(\C)CCC=C(C)C -8.99%
O=C(c1cc(C(F)(F)F)cc(C(F)(F)F)c1)N1CCC2(CCCN(c3ccccc3)C2)CC1 2.95%
COc1ccc(CNc2ccnc(-c3ccoc3)n2)c(OC)c1 -3.28%
COc1ccc(Oc2ncc3nc(C)c(=O)n(C)c3n2)cc1 -8.18%
CCCCNc1c(C(=O)OCC)c(C)nc2c1cnn2CC -13.6% and -21.3%
Nc1c(N=Nc2ccc(-c3ccc(N=Nc4cc(S(=O)(=O)O)c5ccccc5c4N)cc3)cc2)cc(S(=O)(=O)O)c2ccccc12 -13.7%
O=S(=O)(O)O -6.75%
N[C@@H](C(=O)O)[C@H](CC(=O)O)c1ccc(Cl)cc1 -12.2%
OC[C@H]1O[C@@H](n2cnc3c(Nc4ccccc4)ncnc32)[C@H](O)[C@@H]1O -27.2%
CN(C)c1nc2cc(Cl)ccc2cc1CN(Cc1ccc2c(c1)OCO2)C(=O)c1ccoc1 -17.4%
CC(=O)C[C@H]1c2cc(C(F)(F)F)ccc2S(=O)(=O)N1c1ccccc1 -7.56%
Cc1cc(-c2ccnc(-n3ncc(C(=O)NCC(C)(C)N4CCOCC4)c3C)n2)c(C)s1 2.13%
COC1(C)CCC2OC2(C)CCC2C1CC2(C)C (stereo not given) -6.56%
CN(C)c1ccc(/C=C2/CCCc3c2nc2ccccc2c3C(=O)O)cc1 -21.8%
Nc1ccc(CCNc2ncnc3c2ncn3C2OC(CO)C(O)C2O)cc1 (stereo not given) -2.64% and -9.47%
C=Cc1c(C)c2cc3nc(cc4[nH]c(cc5nc(cc1[nH]2)C(C)=C5CCC(=O)OC)c(CCC(=O)O)c4C)[C@@]1(C)C3=CC=C(C(=O)OC)[C@H]1C(=O)OC 0.217%
COc1ccc(-n2c(=O)c(CCc3ccccc3)nc3cnc(N4CCNCC4)nc32)cc1 -17.5%
OC(CN1CCN(c2cccc(Cl)c2)CC1)C(c1ccccc1)c1ccccc1 (stereo not given) -14.6% and 7.57%
CN(C)C(=O)c1ccc(-c2nccc(NCc3cccnc3)n2)cc1 -6.8%
CC(C)(O)[C@@H]1CCC[N+]2(C)CCCC[C@H]12 (stereo not given in full) -9.15%
O=C(c1ccccc1-n1cccn1)N1CCOc2ccc(CN3CCOCC3)cc2C1 -2.18%
Cc1cccc(C(=O)N2CCOc3ccc(CN(C)Cc4cc(C5CC5)n[nH]4)cc3C2)n1 -12.8%
CN(C)c1ccc(/C=C/c2ccnc3c2ccc2c(/C=C/c4ccc(N(C)C)cc4)ccnc23)cc1 -23.4%
NC1C=CC=C(C(=O)O)C1 (stereo not given) 4.15% and -23.5%
COc1ccc2[nH]cc(CCNc3cc(-c4ccccc4CN(C)C)ncn3)c2c1 -27.9%
CC(C)(Sc1ccc(CCN(CCCCC2CCCCC2)C(=O)NC2CCCCC2)cc1)C(=O)O -6.16% and -59.3%
C[C@H](NC(=O)OC(C)(C)C)[C@@H](O)c1ccco1 -21.2%
CSc1ccc2c(c1)N(CCC1CCCCN1C)c1ccccc1S2 (stereo not given) 1.09% and 6.73% and -14.5%
CCCCC[C@H]1CN(CCCC)C(=O)[C@@H]1CC(=O)NCc1ccc(OC)cc1 -36.5%
CC/C(=C(/CC)c1ccc(O)cc1)c1ccc(O)cc1 -1.29% and 0.832%
O=c1cc(-c2ccc(O)cc2)oc2cc(O[C@H]3OC(CO)C(O)C(O)C3O)cc(O)c12 (stereo not given in full) -9.92%
Cc1ccccc1C(=O)N1CCc2c(cnc(C)c2CNC(=O)CN2CCCCC2)C1 -2.25%
CC(=O)O[C@@H]1C(=O)O[C@@H]2[C@H]1OC(=O)[C@@H]2OC(C)=O 5.75%
Cc1cc(S(=O)(=O)NCc2nc(N3CCCC3)c3cc(Cl)ccc3n2)c(C)s1 -4.51%
Cc1ccccc1-c1cc(Nc2ccc(F)cc2)ncn1 -15.9%
CS(=O)(=O)N1CCC2(CCCN(C(=O)Nc3cccc(F)c3)C2)CC1 -8.84%
COCCNc1nc(-c2ccccc2CN(C)C)nc2ccccc12 1.48%
NC(N)=Nc1nc(CSCC/C(N)=N/S(N)(=O)=O)cs1 -9.18% and -12.1%
N#Cc1cccc(NC(=O)N2CC3(CCN(C(=O)c4cnccn4)CC3)C2)c1 -1.69%
COc1ccc(-c2cc(=O)c3c(OC(C)=O)cc(OC(C)=O)cc3o2)cc1 5.51%
Cc1cc(-c2ccccc2)nnc1NCCN1CCOCC1 3.61% and -23.4%
CN(Cc1ccco1)c1ncnc2ccc(-c3ccccc3C#N)cc12 5.13%
C[C@@H]1CN(Cc2ccc3c(c2)CN(Cc2cccc4cccnc24)CCO3)C[C@H](C)O1 -5.06%
Cc1cnc(CNc2ncnc3ccc(-c4ccccc4C#N)cc23)cn1 -3.32%
Cn1c(-c2ccncc2)nc2cc(C(=O)N[C@H]3CCCCNC3=O)cc(NC(=O)C3CCC3)c21 -13.7%
COc1cc(=O)n2c(c1C(=O)NCc1ccco1)CCN(Cc1ccccc1)CC2 0.141%
NCCNS(=O)(=O)c1cccc2cnccc12 -12.5% and 8.19%
CCc1nc2cc(C(=O)N3CCC[C@H]3C(=O)OC)cc(NC(=O)c3ccccc3OC)c2n1C -4.33%
COCCn1c(=O)c(-c2ccc(F)cc2)nc2cnc(OC)nc21 -23.4%
COc1ccc(-c2nc3cc(F)ccc3cc2CN(C(=O)c2cccc(OC)c2)C2CC2)cc1 -12.5%
COC(=O)CC1C2(C)CC34OC5(C)O[C@@]6(C7/C(=C(/OC)C(C)C)C(=O)OC(c8ccoc8)[C@@]7(C)C(OC(=O)C(C)C)C(OC)[C@]6(O5)[C@@]13C)C(OC)[C@]4(OC)C2OC(C)=O (stereo not given in full) -45.9%
CC(C)CCCC(C)C1CCC2C3CC(O)[C@@]4(O)CC(O)CC[C@@]4(C)C3CC[C@@]12C (stereo not given in full) -22.3%
O=c1ccc2ccc(O[C@@H]3O[C@H](CO)[C@@H](O)[C@H](O)[C@H]3O)c(O)c2o1 -12.5%
CCC[C@H]1COCCS(=O)(=O)N1Cc1ccccc1 -18.1%
CCN(CCO)CCCC(C)Nc1ccnc2cc(Cl)ccc12 (stereo not given) -23.1% and -7.69%
Cc1nc(Nc2ncc(C(=O)Nc3c(C)cccc3Cl)s2)cc(N2CCN(CCO)CC2)n1 -22.4%
C=C(C)C1CC=C(CO)CC1 (stereo not given) -6.94%
CC(C)CN1CCCC2(CCN(C(=O)c3cnccn3)CC2)C1 -16.9%
CON -13%
CC(CCC(=O)O)C1CCC2C3CC(O)[C@@H]4CC(O)CC[C@]4(C)C3CC[C@@]12C (stereo not given in full) -5.3%
CS(=O)(=O)Nc1cccc(-c2cncnc2NCc2cccs2)c1 3.66%
CN(Cc1ccco1)c1ncnc2ccc(-c3ccccc3C(F)(F)F)cc12 -4.16%
COc1ccc2[nH]cc(CCNc3ncncc3-c3ccccc3CN(C)C)c2c1 7%
O=C(NCc1ccncc1)c1cnn(-c2nccc(-c3cc4ccccc4o3)n2)c1C1CC1 -3.94%
CN(C)c1ncc2nc(-c3ccccc3)c(=O)n(CCC#N)c2n1 -9.06%
CN1CCCCC1CCN1c2ccccc2Sc2ccc(S(C)=O)cc21 (stereo not given) -14.9% and -19.4% and -9.19%
O=C(NC1CCN(Cc2ccccc2)CC1)c1ccc(I)cc1 -22.5% and -5.74%
CC(C)c1ccc2c(c1)c(SC(C)(C)C)c(CC(C)(C)C(=O)O)n2Cc1ccc(Cl)cc1 -24% and -102%
CC(C)C(NC(=O)c1ccoc1)c1nnc2n1CCN(Cc1ccc3c(c1)Cc1ccccc1-3)CC2 (stereo not given) -7.49%
Clc1ccc(N2CCN(Cc3c[nH]c4ncccc34)CC2)cc1 -11.8% and 1.94% and -29.9%
Cc1nc(-c2ccc(OCC(C)C)c(C#N)c2)sc1C(=O)O -11%
O=c1ccn([C@@H]2O[C@H](COP(=O)(O)OP(=O)(O)OP(=O)(O)O)[C@@H](O)[C@H]2O)c(=O)[nH]1 0.779%
O=C(c1cnccn1)N1CCC2(CC1)CCN(c1ccccc1)CC2 -11%
COc1ccc2cc([S+]([O-])Cc3ncc(C)c(OC)c3C)nc2c1 -20.8%
COc1ccc(C(=O)N2CCC3(CCCN(c4ncccn4)C3)CC2)cc1 -2.15%
C[C@@H](O)[C@H]1C(=O)N2C(C(=O)[O-])=C(SC3Cn4cnc[n+]4C3)[C@H](C)[C@H]12 (stereo not given in full) -27.1%
CCNc1ncc2nc(C)c(=O)n(-c3ccc(OC)cc3)c2n1 -17.7%
COc1cccc(Nc2ncc3nc(C)c(=O)n(C4CC4)c3n2)c1 0.874%
